The other results are listed elsewhere or left out.
Experiments:
Test in all cases: glycan array binding signal (z-score within array); higher = stronger binding
Settings in all cases: glycan notation: IUPAC condensed, linker removed
[1] = target: Fuc(a1-2)Gal
Outline: (§1)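 Columns mapping to the same glycan were averaged after glycan names were converted to IUPAC-condensed notation. The data come from 3228 arrays in the Consortium for Functional Glycomics database, limited to those with an available protein sequence. Binding is reported as a within-array Z-score averaged across arrays of one protein sequence and across linkers.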

[2] = target: Fuc(a1-2)Gal(b1-3)GalNAc
Outline: as §1

[3] = target: Fuc(a1-2)Gal(b1-3)GalNAc(a1-3)[Fuc(a1-2)]Gal(b1-4)Glc
Outline: as §1

[4] = target: Fuc(a1-2)Gal(b1-3)GalNAc(a1-3)[Fuc(a1-2)]Gal(b1-4)GlcNAc
Outline: as §1

[5] = target: Fuc(a1-2)Gal(b1-3)GalNAc(b1-3)Gal
Outline: as §1

[6] = target: Fuc(a1-2)Gal(b1-3)GalNAc(b1-3)Gal(a1-4)Gal(b1-4)Glc
Outline: as §1

[7] = target: Fuc(a1-2)Gal(b1-3)GalNAc(b1-4)[Neu5Ac(a2-3)]Gal(b1-4)Glc
Outline: as §1

[8] = target: Fuc(a1-2)Gal(b1-3)GlcNAc
Outline: as §1

[9] = target: Fuc(a1-2)Gal(b1-3)GlcNAc(b1-2)Man(a1-3)[Fuc(a1-2)Gal(b1-3)GlcNAc(b1-2)Man(a1-6)]Man(b1-4)GlcNAc(b1-4)GlcNAc
Outline: as §1

[10] = target: Fuc(a1-2)Gal(b1-3)GlcNAc(b1-2)Man(a1-3)[Fuc(a1-2)Gal(b1-3)GlcNAc(b1-2)Man(a1-6)]Man(b1-4)GlcNAc(b1-4)[Fuc(a1-6)]GlcNAc
Outline: as §1

[11] = target: Fuc(a1-2)Gal(b1-3)GlcNAc(b1-3)Gal(b1-4)Glc
Outline: as §1

[12] = target: Fuc(a1-2)Gal(b1-3)GlcNAc(b1-3)GalNAc
Outline: as §1

[13] = target: Fuc(a1-2)Gal(b1-3)GlcNAc(b1-3)[Fuc(a1-2)Gal(b1-3)GlcNAc(b1-6)]GalNAc
Outline: as §1

[14] = target: Fuc(a1-2)Gal(b1-3)GlcNAc(b1-3)[Gal(b1-4)GlcNAc(b1-6)]Gal(b1-4)Glc
Outline: as §1

[15] = target: Fuc(a1-2)Gal(b1-3)GlcNAc(b1-3)[Neu5Ac(a2-6)Gal(b1-4)GlcNAc(b1-6)]Gal(b1-4)Glc
Outline: as §1

[16] = target: Fuc(a1-2)Gal(b1-3)GlcNAc6S
Outline: as §1

[17] = target: Fuc(a1-2)Gal(b1-3)[Fuc(a1-4)]GlcNAc
Outline: as §1

[18] = target: Fuc(a1-2)Gal(b1-3)[Fuc(a1-4)]GlcNAc(b1-2)Man(a1-3)[Fuc(a1-2)Gal(b1-3)[Fuc(a1-4)]GlcNAc(b1-2)Man(a1-3)]Man(b1-4)GlcNAc(b1-4)GlcNAc
Outline: as §1

[19] = target: Fuc(a1-2)Gal(b1-3)[Fuc(a1-4)]GlcNAc(b1-2)Man(a1-3)[Fuc(a1-2)Gal(b1-3)[Fuc(a1-4)]GlcNAc(b1-2)Man(a1-6)]Man(b1-4)GlcNAc(b1-4)[Fuc(a1-6)]GlcNAc(b1-4)[Fuc(a1-6)]GlcNAc
Outline: as §1

[20] = target: Fuc(a1-2)Gal(b1-3)[Fuc(a1-4)]GlcNAc(b1-3)[Fuc(a1-3)[Gal(b1-4)]GlcNAc(b1-6)]Gal(b1-4)Glc
Outline: as §1

[21] = target: Fuc(a1-2)Gal(b1-3)[Fuc(a1-4)]GlcNAc(b1-3)[Gal(b1-4)GlcNAc(b1-6)]Gal(b1-4)Glc
Outline: as §1

[22] = target: Fuc(a1-2)Gal(b1-4)Glc
Outline: as §1

[23] = target: Fuc(a1-2)Gal(b1-4)Glc6S
Outline: as §1

[24] = target: Fuc(a1-2)Gal(b1-4)GlcNAc
Outline: as §1

[25] = target: Fuc(a1-2)Gal(b1-4)GlcNAc(b1-2)Man
Outline: as §1

[26] = target: Fuc(a1-2)Gal(b1-4)GlcNAc(b1-2)Man(a1-3)[Fuc(a1-2)Gal(b1-4)GlcNAc(b1-2)Man(a1-6)]Man(b1-4)GlcNAc(b1-4)GlcNAc
Outline: as §1

[27] = target: Fuc(a1-2)Gal(b1-4)GlcNAc(b1-2)Man(a1-3)[Fuc(a1-2)Gal(b1-4)GlcNAc(b1-2)Man(a1-6)]Man(b1-4)GlcNAc(b1-4)[Fuc(a1-6)]GlcNAc
Outline: as §1

[28] = target: Fuc(a1-2)Gal(b1-4)GlcNAc(b1-2)[Fuc(a1-2)Gal(b1-4)GlcNAc(b1-4)]Man(a1-3)[Fuc(a1-2)Gal(b1-4)GlcNAc(b1-2)Man(a1-6)]Man(b1-4)GlcNAc(b1-4)GlcNAc
Outline: as §1

[29] = target: Fuc(a1-2)Gal(b1-4)GlcNAc(b1-3)Gal(b1-4)GlcNAc
Outline: as §1

[30] = target: Fuc(a1-2)Gal(b1-4)GlcNAc(b1-3)Gal(b1-4)GlcNAc(b1-2)Man(a1-3)[Fuc(a1-2)Gal(b1-4)GlcNAc(b1-3)Gal(b1-4)GlcNAc(b1-2)Man(a1-6)]Man(b1-4)GlcNAc(b1-4)GlcNAc
Outline: as §1

[31] = target: Fuc(a1-2)Gal(b1-4)GlcNAc(b1-3)Gal(b1-4)GlcNAc(b1-3)Gal(b1-4)GlcNAc
Outline: as §1

[32] = target: Fuc(a1-2)Gal(b1-4)GlcNAc(b1-3)GalNAc
Outline: as §1

[33] = target: Fuc(a1-2)Gal(b1-4)GlcNAc(b1-3)[Fuc(a1-2)Gal(b1-4)GlcNAc(b1-6)]GalNAc
Outline: as §1

[34] = target: Fuc(a1-2)Gal(b1-4)GlcNAc(b1-3)[Fuc(a1-3)[Gal(b1-4)]GlcNAc(b1-6)]Gal(b1-4)Glc
Outline: as §1

[35] = target: Fuc(a1-2)Gal(b1-4)GlcNAc(b1-6)GalNAc
Outline: as §1

[36] = target: Fuc(a1-2)Gal(b1-4)GlcNAc6S
Outline: as §1

[37] = target: Fuc(a1-2)Gal(b1-4)[Fuc(a1-3)]GlcNAc
Outline: as §1

[38] = target: Fuc(a1-2)Gal(b1-4)[Fuc(a1-3)]GlcNAc(b1-2)Man(a1-3)[Fuc(a1-2)Gal(b1-4)[Fuc(a1-3)]GlcNAc(b1-2)Man(a1-6)]Man(b1-4)GlcNAc(b1-4)[Fuc(a1-6)]GlcNAc
Outline: as §1

[39] = target: Fuc(a1-2)Gal(b1-4)[Fuc(a1-3)]GlcNAc(b1-2)[Fuc(a1-2)Gal(b1-4)[Fuc(a1-3)]GlcNAc(b1-4)]Man(a1-3)[Fuc(a1-2)Gal(b1-4)[Fuc(a1-3)]GlcNAc(b1-2)Man(a1-6)]Man(b1-4)GlcNAc(b1-4)GlcNAc
Outline: as §1

[40] = target: Fuc(a1-2)Gal(b1-4)[Fuc(a1-3)]GlcNAc(b1-3)Gal(b1-4)[Fuc(a1-3)]GlcNAc
Outline: as §1

[41] = target: Fuc(a1-2)Gal(b1-4)[Fuc(a1-3)]GlcNAc(b1-3)Gal(b1-4)[Fuc(a1-3)]GlcNAc(b1-3)Gal(b1-4)[Fuc(a1-3)]GlcNAc
Outline: as §1

[42] = target: Fuc(a1-2)Gal(b1-4)[Fuc(a1-3)]GlcNAc(b1-3)GalNAc
Outline: as §1

[43] = target: Fuc(a1-2)Gal(b1-4)[Fuc(a1-3)]GlcNAc(b1-3)[Neu5Ac(a2-6)Gal(b1-4)GlcNAc(b1-6)]Gal(b1-4)Glc
Outline: as §1

[44] = target: Fuc(a1-2)Gal3S(b1-4)GlcNAc
Outline: as §1

[45] = target: Fuc(a1-2)Gal6S(b1-3)GlcNAc
Outline: as §1

B1: PX9896A-bth-573-26-573 (Bacteroides thetaiotaomicron) (protein)
chain: ETNNLKTKEDMYKYFGTSKSMLTHVYSYMPQGYQLFATSGGIFTEDRYSMRDCASDDGEFGAYADNIQNTNNGNWSPIKTYDDSWTLYRGIRAANSFIAEIAQVDFTRYEHDGQYTNWMKQLKYFPYEARVLRAHYFFELARRYGDIAMPLEVLTEEEANTIGKTPFSEVISFIVSECDDAANNLPDSYVNEPGAEIGRVTKGFAMAVKSKALLYAASKLHNPSMDTELWKKSAKAAIDIINTGLYSLDPQESANNLDSKEVVLMRINGDDSDFEMFNLPLRMTAGTRTSSLIPYSNYPSQNLVDAFETVNGYKVTLENTGWVCEDPAFDPQSPYENRDKRFYRAILANGMSFKDYTIETFKGGADDGIVSQGGSPTGYFLRKYIQEATSFEPGKEAVSKHHWVIYRYAETLLTYAESMVNAFNDVNYTDETYKYSALWAINEVRKNADMPLIPSMGKDEFMERLYNEWRVEFAFEDHRFWDVRRWKIADTTQRELYGVKIEKQADGTFNFYKNLYETRNWRDCMYLYPIPQSELYKNTNLNPQNTGW
**Q.** Which results are given for B1?
**A.** glycan array binding signal (z-score) [1]: -0.334; glycan array binding signal (z-score) [2]: -0.178; glycan array binding signal (z-score) [3]: 0.073; glycan array binding signal (z-score) [4]: 0.07; glycan array binding signal (z-score) [5]: -0.605; glycan array binding signal (z-score) [6]: 0.511; glycan array binding signal (z-score) [7]: -0.491; glycan array binding signal (z-score) [8]: 0.448; glycan array binding signal (z-score) [9]: -0.041; glycan array binding signal (z-score) [10]: 0.89; glycan array binding signal (z-score) [11]: -0.05; glycan array binding signal (z-score) [12]: -0.507; glycan array binding signal (z-score) [13]: 0.638; glycan array binding signal (z-score) [14]: 0.403; glycan array binding signal (z-score) [15]: -0.324; glycan array binding signal (z-score) [16]: -0.258; glycan array binding signal (z-score) [17]: -0.457; glycan array binding signal (z-score) [18]: 0.172; glycan array binding signal (z-score) [19]: 0.845; glycan array binding signal (z-score) [20]: -0.063; glycan array binding signal (z-score) [21]: -0.704; glycan array binding signal (z-score) [22]: -0.411; glycan array binding signal (z-score) [23]: -0.433; glycan array binding signal (z-score) [24]: -0.263; glycan array binding signal (z-score) [25]: -0.198; glycan array binding signal (z-score) [26]: 0.155; glycan array binding signal (z-score) [27]: 1.31; glycan array binding signal (z-score) [28]: 0.665; glycan array binding signal (z-score) [29]: -0.815; glycan array binding signal (z-score) [30]: -0.158; glycan array binding signal (z-score) [31]: -0.275; glycan array binding signal (z-score) [32]: 0.126; glycan array binding signal (z-score) [33]: -0.296; glycan array binding signal (z-score) [34]: 0.104; glycan array binding signal (z-score) [35]: 0.111; glycan array binding signal (z-score) [36]: 0.169; glycan array binding signal (z-score) [37]: 0.212; glycan array binding signal (z-score) [38]: 0.456; glycan array binding signal (z-score) [39]: 0.13; glycan array binding signal (z-score) [40]: 0.235; glycan array binding signal (z-score) [41]: -0.744; glycan array binding signal (z-score) [42]: -0.569; glycan array binding signal (z-score) [43]: -0.024; glycan array binding signal (z-score) [44]: -0.346; glycan array binding signal (z-score) [45]: -0.307

From the supplement of paper PMC8728848
